# Test results published in PMC9911399, “Two distinct binding modes provide the RNA-binding protein RbFox with extraordinary sequence specificity”.
# Substitutions are numbered along the chain they refer to; changes in the protein carry UniProt numbers. Some of the results follow.
# T1: RBFOX1 RRM RbFoxmut (Fox-RRM*) (Homo sapiens, UniProt Q9NWB1 109-208, R118D;E147R;N151S;E152T)
# T1 sequence: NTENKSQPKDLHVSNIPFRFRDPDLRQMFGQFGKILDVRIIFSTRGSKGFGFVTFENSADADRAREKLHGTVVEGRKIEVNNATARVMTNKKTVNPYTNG
# B1: UUUGCGU (DNA:RNA)
# RNA: GGGAGACCGGAAUUCAGAUUGUCCUUUGCGUUUAAAUCCCGUCGUAGCCACCA
# DNA 1: CAATCTGAATTCCGGTCTCCC
# DNA 2: TGGTGGCTACGACGGGATT
# B2: AUACAGU (DNA:RNA)
# RNA: B1 RNA with U25A, U27A, G28C, C29A
# DNA 1: CAATCTGAATTCCGGTCTCCC
# DNA 2: TGGTGGCTACGACGGGATT
# B3: UCGGAUA (DNA:RNA)
# RNA: B1 RNA with U26C, U27G, C29A, G30U, U31A
# DNA 1: CAATCTGAATTCCGGTCTCCC
# DNA 2: TGGTGGCTACGACGGGATT
# B4: CUGACGG (DNA:RNA)
# RNA: B1 RNA with U25C, U27G, G28A, U31G
# DNA 1: CAATCTGAATTCCGGTCTCCC
# DNA 2: TGGTGGCTACGACGGGATT
# B5: AUUGUUU (DNA:RNA)
# RNA: B1 RNA with U25A, C29U, G30U
# DNA 1: CAATCTGAATTCCGGTCTCCC
# DNA 2: TGGTGGCTACGACGGGATT
# B6: GAGAGUG (DNA:RNA)
# RNA: GGGAGACCGGAAUUCAGAUUGUCCGAGAGUGUUAAAUCCCGUCGUAGCCACCA
# DNA 1: CAATCTGAATTCCGGTCTCCC
# DNA 2: TGGTGGCTACGACGGGATT
# B7: GGCGUAA (DNA:RNA)
# RNA: B6 RNA with A26G, G27C, A28G, G29U, U30A, G31A
# DNA 1: CAATCTGAATTCCGGTCTCCC
# DNA 2: TGGTGGCTACGACGGGATT
# B8: UGAUACG (DNA:RNA)
# RNA: B6 RNA with G25U, A26G, G27A, A28U, G29A, U30C
# DNA 1: CAATCTGAATTCCGGTCTCCC
# DNA 2: TGGTGGCTACGACGGGATT
# B9: CUCUUGG (DNA:RNA)
# RNA: B1 RNA with U25C, U27C, G28U, C29U, U31G
# DNA 1: CAATCTGAATTCCGGTCTCCC
# DNA 2: TGGTGGCTACGACGGGATT
# B10: GUGGAGC (DNA:RNA)
# RNA: B1 RNA with U25G, U27G, C29A, U31C
# DNA 1: CAATCTGAATTCCGGTCTCCC
# DNA 2: TGGTGGCTACGACGGGATT
# B11: GUAGGGC (DNA:RNA)
# RNA: B1 RNA with U25G, U27A, C29G, U31C
# DNA 1: CAATCTGAATTCCGGTCTCCC
# DNA 2: TGGTGGCTACGACGGGATT
# B12: CACUUUA (DNA:RNA)
# RNA: B6 RNA with G25C, G27C, A28U, G29U, G31A
# DNA 1: CAATCTGAATTCCGGTCTCCC
# DNA 2: TGGTGGCTACGACGGGATT
# B13: CGCUGAU (DNA:RNA)
# RNA: B6 RNA with G25C, A26G, G27C, A28U, U30A, G31U
# DNA 1: CAATCTGAATTCCGGTCTCCC
# DNA 2: TGGTGGCTACGACGGGATT
# B14: UACGAGG (DNA:RNA)
# RNA: B1 RNA with U26A, U27C, C29A, U31G
# DNA 1: CAATCTGAATTCCGGTCTCCC
# DNA 2: TGGTGGCTACGACGGGATT
# B15: GCCUUAG (DNA:RNA)
# RNA: B6 RNA with A26C, G27C, A28U, G29U, U30A
# DNA 1: CAATCTGAATTCCGGTCTCCC
# DNA 2: TGGTGGCTACGACGGGATT
# B16: CUUCCGC (DNA:RNA)
# RNA: B1 RNA with U25C, G28C, U31C
# DNA 1: CAATCTGAATTCCGGTCTCCC
# DNA 2: TGGTGGCTACGACGGGATT
# B17: GAAGACG (DNA:RNA)
# RNA: B6 RNA with G27A, A28G, G29A, U30C
# DNA 1: CAATCTGAATTCCGGTCTCCC
# DNA 2: TGGTGGCTACGACGGGATT
# B18: GACGGAG (DNA:RNA)
# RNA: B6 RNA with G27C, A28G, U30A
# DNA 1: CAATCTGAATTCCGGTCTCCC
# DNA 2: TGGTGGCTACGACGGGATT
# B19: GACUGGC (DNA:RNA)
# RNA: B6 RNA with G27C, A28U, U30G, G31C
# DNA 1: CAATCTGAATTCCGGTCTCCC
# DNA 2: TGGTGGCTACGACGGGATT
# B20: UUCUCCA (DNA:RNA)
# RNA: B1 RNA with U27C, G28U, G30C, U31A
# DNA 1: CAATCTGAATTCCGGTCTCCC
# DNA 2: TGGTGGCTACGACGGGATT
# Biological target: T1, RBFOX1 RRM RbFoxmut (Fox-RRM*)
# Test: EMSA; HiTS-Eq, 1 nM pool, 10 min; buffer printed only for the single-RNA assays: 10 mM Tris pH 7.5, 150 mM NaCl, 3.4 mM EDTA, 0.001% NP-40, 30 C
# Conditions: tags: His6 N-terminal (pET28a); label: 5' 32P
# How it was run: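 These values rest on relative association constants, computed from read-count changes of each RNA species versus the control reaction and normalised to the cognate motif. Reads came from free RNA recovered by 8% native PAGE after purified RbFox RRM (wild type or mutant) at increasing concentrations was equilibrated for 10 min in 50 µL with 1 nM of a 5′-radiolabelled pool with 7 randomized nucleotides and DNA-annealed flanks.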
row,Binder,binding signal
1,B1,0.128 KA relative to UGCAUGU
2,B2,0.0795 KA relative to UGCAUGU
3,B3,0.0727 KA relative to UGCAUGU
4,B4,0.073 KA relative to UGCAUGU
5,B5,0.134 KA relative to UGCAUGU
6,B6,0.221 KA relative to UGCAUGU
7,B7,0.0907 KA relative to UGCAUGU
8,B8,0.159 KA relative to UGCAUGU
9,B9,0.089 KA relative to UGCAUGU
10,B10,0.134 KA relative to UGCAUGU
11,B11,0.0527 KA relative to UGCAUGU
12,B12,0.113 KA relative to UGCAUGU
13,B13,0.106 KA relative to UGCAUGU
14,B14,0.0882 KA relative to UGCAUGU
15,B15,0.126 KA relative to UGCAUGU
16,B16,0.0603 KA relative to UGCAUGU
17,B17,0.0656 KA relative to UGCAUGU
18,B18,0.0864 KA relative to UGCAUGU
19,B19,0.2 KA relative to UGCAUGU
20,B20,0.0808 KA relative to UGCAUGU
